Results published in PubChem BioAssay AID485294 (National Center for Advancing Translational Sciences (NCATS), 2010).
The whole screen tested about 370,000 compounds, of which about 150 (0.041%) were called active. The shares of active, inactive and inconclusive entries below differ from those in the screen. Calls follow the shape of the dose curve; as a rule, active = well fitted inhibition curve with a large enough effect; inconclusive = small, poorly fitted or top-dose-only effect; inactive = flat fitted curve, though single readings scatter. No potency is given beside an inconclusive call; the fits are too rough.
Also: nearly all actives have a fitted effect of over 25% in size.
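For activity change, negative = inhibition in this document: 0% = no-compound wells and -100% = no-enzyme wells.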
Potency is read from the fitted curve at half-maximal effect; tags tell the direction and shape of the fitted curve.

These compounds were tested against Beta-lactamase (Escherichia coli (strain K12)) (UniProt P00811) (assay: qHTS Inhibitors of AmpC Beta-Lactamase (assay with detergent)). Conditions: AmpC hydrolysis of nitrocefin, absorbance 480 nm, 0.01% Triton; activity change, negative = inhibition: at 114 µM (top of the series).
Chain of UniProt P00811 (P00811 whole entry, looked up): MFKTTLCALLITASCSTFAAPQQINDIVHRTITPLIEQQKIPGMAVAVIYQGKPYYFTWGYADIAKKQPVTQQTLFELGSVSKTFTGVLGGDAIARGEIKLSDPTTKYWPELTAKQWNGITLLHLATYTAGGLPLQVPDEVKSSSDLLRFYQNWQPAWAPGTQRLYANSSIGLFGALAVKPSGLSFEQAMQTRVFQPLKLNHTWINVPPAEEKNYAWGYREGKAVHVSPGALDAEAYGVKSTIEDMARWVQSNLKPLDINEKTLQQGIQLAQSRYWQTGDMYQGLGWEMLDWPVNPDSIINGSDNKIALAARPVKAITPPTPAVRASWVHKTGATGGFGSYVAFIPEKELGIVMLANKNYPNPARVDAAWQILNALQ
In short: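 20 mM phosphate pH 7.0 + 0.01% (detergent screen) or 0.0001% Triton X-100; 5.3 nM AmpC reagent; cpd preinc 15 min RT; nitrocefin (800 uM stock) to start; A480 q20 s × 4 min; Activity was normalised to no-enzyme and no-compound control wells.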
In the case of `CN(C)S(=O)(=O)c1ccc(N2CCCC2)c(C(=O)OCC(=O)NC2(C#N)CCCCC2)c1`, the Potency is reported as inconclusive [inhibitor, full curve, poor fit]. `CCOc1ccc(OCCC(=O)N(CCC(C)C)c2c(N)n(Cc3ccccc3)c(=O)[nH]c2=O)cc1` was tested, and the Potency was inconclusive [inhibitor, full curve]. In the case of `CCOC(=O)C1(Cc2cccc(OC)c2)CCCN(C(=O)c2cc(C)oc2C)C1` (centres undefined), the Potency is reported as inconclusive [inhibitor, full curve, poor fit]. With `CCOc1ccc2[nH]c(=O)c(CN(Cc3cccs3)Cc3nnnn3C(C)(C)CC)cc2c1` the Potency was inconclusive [inhibitor, partial curve]. With `CC1CN(C(=S)NC(=O)c2ccc([N+](=O)[O-])cc2)CC(C)O1` (centres undefined) the Potency was inconclusive [inhibitor, single point]. In the case of `O=C1c2cccc(Sc3ccccc3)c2C(=O)c2c(Sc3ccccc3)cccc21`, the Potency is reported as “inactive”. `COc1ccc(C(=O)c2no[n+]([O-])c2C(=O)c2ccc(OC)cc2)cc1` was tested, and the Potency was “inactive”. For `CCN(CC(=O)NCc1cccs1)C(=O)c1ccc([N+](=O)[O-])o1`, the Potency was inconclusive [inhibitor, full curve, poor fit]. With `CS(=O)(=O)c1nc(S(=O)(=O)c2ccc(Cl)cc2)c(NCc2ccccn2)s1` the Potency was inconclusive [inhibitor, full curve, poor fit]. `CCN1CCN(c2ccc(S(=O)(=O)N3CCCCC3)cc2NC(=O)c2ccc([N+](=O)[O-])o2)CC1` was tested, and the Potency was inconclusive [inhibitor, full curve, poor fit]. In the case of `CCOC(=O)C1=C(O)/C(=C\c2ccc(CNS(=O)(=O)c3ccc(Br)cc3)o2)N=C1C`, the Potency is reported as “inactive”. With `CCC(=O)NC(NC(=S)Nc1ccc(S(N)(=O)=O)cc1)C(Cl)(Cl)Cl` (centres undefined) the Potency was “inactive”. `Cc1ccccc1NC(=O)c1ccc(F)c(S(=O)(=O)N2CCN(c3ccccn3)CC2)c1` was tested, and the Potency was inconclusive [inhibitor, full curve, poor fit]. For `Cc1ccc(N(CC(=O)Nc2ccccc2C(=O)NCc2ccco2)S(=O)(=O)c2ccccc2)cc1C`, the Potency was inconclusive [inhibitor, full curve, poor fit]. For `O=C(CCNc1cc(Cl)cc(Cl)c1)c1ccco1`, the Potency was “inactive”. For `CCCCn1c(SCc2ccccc2C#N)nc2c(sc3ccccc32)c1=O`, the Potency was “inactive”. `Cc1ccc(S(=O)(=O)N2CCN(C(=O)COC(=O)CCCOc3ccccc3)CC2)c(C)c1` was tested, and the Potency was inconclusive [inhibitor, full curve]. In the case of `CCOC(=O)c1c(C)c(C#N)c2c3ccccc3ccn12`, the Potency is reported as inconclusive [inhibitor, single point]. For `COc1ccc(/C=C2/SC(=S)N(CCCC(=O)N3CCN(C)CC3)C2=O)cc1`, the Potency was “inactive”. In the case of `COc1cc(/C=N/Nc2ccccc2C(F)(F)F)ccc1O`, the Potency is reported as “inactive”. In the case of `O=C(/C=C/c1ccc(O)c([N+](=O)[O-])c1)c1ccc2ccccc2c1`, the Potency is reported as “inactive”. `CCN(CC)CCNC(=O)C(C)c1nn(C)c(=O)c2ccccc12` (centres undefined) was tested, and the Potency was inconclusive [inhibitor, full curve]. In the case of `CCC(C)(C)n1nnnc1C(CC(C)C)N1CCC(C(N)=O)CC1` (centres undefined), the Potency is reported as inconclusive [inhibitor, full curve, poor fit]. For `Cc1cc(C)cc(C(=O)NCC(=O)OCC(=O)N2CCN(S(=O)(=O)c3ccc4ccccc4c3)CC2)c1`, the Potency was inconclusive [inhibitor, full curve, poor fit]. For `CCOc1ccccc1-c1nc(-c2cc3ccc(C)cc3[nH]c2=O)no1`, the Potency was inconclusive [inhibitor, single point]. With `NC(=O)N(CCC(=O)O)c1ccccc1` the Potency was inconclusive [inhibitor, partial curve]. In the case of `CC(C)Oc1ccc(S(=O)(=O)N2CCOCC2)cc1NC(=O)Cc1cccs1`, the Potency is reported as inconclusive [inhibitor, partial curve, poor fit]. In the case of `CN(/N=C/c1ccc2c(c1)OCO2)c1ccccc1`, the Potency is reported as inconclusive [inhibitor, single point]. With `O=C(Nc1ncn[nH]1)c1ccccc1Br` the Potency was inconclusive [inhibitor, single point]. In the case of `CCOCCn1c(COc2ccc(C)cc2)nc2ccccc21`, the Potency is reported as inconclusive [inhibitor, partial curve]. `CCc1ccc(NC(=O)[C@H](C)NC(=O)C2CCN(C(=O)[C@@H](NC(=O)OC(C)(C)C)C(C)C)CC2)cc1` was tested, and the Potency was “inactive”. `BrC(=C\c1ccccc1)/C=N/N1CCN(Cc2ccccc2)CC1` was tested, and the Potency was inconclusive [inhibitor, partial curve]. For `CCN(CC)c1ccc(/C=C2/C(=O)N(c3ccc([N+](=O)[O-])cc3)N=C2N2CCOCC2)cc1`, the Potency was inconclusive [inhibitor, partial curve, poor fit]. For `CC(C)NS(=O)(=O)c1ccc(NC(=O)c2cccnc2)cc1`, the Potency was inconclusive [inhibitor, full curve, poor fit]. `CCN(CC)S(=O)(=O)c1cc(NC(=O)C(C)Nc2ccccc2N2CCOCC2)ccc1C` (centres undefined) was tested, and the Potency was inconclusive [inhibitor, single point]. With `O=C(Cn1cnc2c(nnn2Cc2ccccc2)c1=O)c1ccccc1` the Potency was inconclusive [inhibitor, full curve, poor fit]. For `COC(=O)[C@@]12OC[C@]34[C@H]([C@@H](O)[C@@H]1O)[C@@]1(C)C(=O)C(O[C@@H]5OC(CO)[C@@H](O)[C@@H](O)[C@@H]5O)=C[C@@H](C)[C@@H]1C[C@H]3OC(=O)[C@H](OC(=O)/C=C(\C)C(C)(C)OC(C)=O)[C@@H]24` (some centres undefined), the Potency was inconclusive [inhibitor, full curve, poor fit]. For `Cc1oc(-c2ccccc2F)nc1CS(=O)(=O)CC(=O)N1CCc2ccccc21`, the Potency was inconclusive [inhibitor, full curve, poor fit]. In the case of `CCCCn1c(N)c(N(CC(C)C)C(=O)c2ccc(S(=O)(=O)N3CCCCCC3)cc2)c(=O)[nH]c1=O`, the Potency is reported as inconclusive [inhibitor, partial curve, poor fit]. With `CCC(C)NC(=O)CC(NS(=O)(=O)c1ccc(Cl)cc1)c1ccco1` (centres undefined) the Potency was inconclusive [inhibitor, partial curve]. For `COc1ccc(-c2noc(CN3CCC(Cc4ccccc4)CC3)n2)cc1`, the Potency was inconclusive [inhibitor, partial curve, poor fit]. With `O=C(COC(=O)CNS(=O)(=O)/C=C/c1ccccc1)Nc1cc(S(=O)(=O)N2CCCCC2)ccc1Cl` the Potency was “inactive”. In the case of `CC(=O)N(Cc1cccnc1)c1nc2c(C)cc(C)cc2s1`, the Potency is reported as “inactive”. `O=C(Nc1ccccn1)c1cc2ccccc2o1` was tested, and the Potency was inconclusive [inhibitor, full curve, poor fit]. For `CCn1c(=O)c2cc(C(=O)Nc3cc(C)c(Cl)cc3OC)sc2c2ccccc21`, the Potency was “inactive”. In the case of `CCCC[C@]12Cc3cc(C#N)ccc3C(O1)c1c(cc(-c3ccccc3)oc1=O)O2`, the activity change, negative = inhibition is reported as inactive: -10.3% [at 22.9 µM]. In the case of `CCOc1ccccc1NC(=O)CN(c1ccc(OC)cc1)S(=O)(=O)c1c(C)noc1C`, the Potency is reported as inconclusive [inhibitor, single point]. For `Cc1nnc(C)n1N`, the Potency was inconclusive [inhibitor, full curve]. With `CC(NC(=O)OCc1ccccc1)C(=O)Oc1cc2oc(=O)cc(-c3ccccc3)c2cc1Cl` (centres undefined) the Potency was “inactive”. For `CCOC(=O)Cc1csc(NC(=S)NC(=O)c2ccc(C)cc2)n1`, the Potency was “inactive”. `O=C(CCN1CCc2ccccc2C1)Nc1cccc(F)c1` was tested, and the Potency was inconclusive [inhibitor, full curve, poor fit]. `O=C(O)C1CCN1C1CCCCC1` (centres undefined) was tested, and the Potency was inconclusive [inhibitor, full curve, poor fit]. With `Cc1cccc(NC(=O)CSCC(=O)Nc2cc(Cl)ccc2N2CCOCC2)c1` the Potency was inconclusive [inhibitor, partial curve]. In the case of `Cc1ccnc(NC(=O)c2ccc(S(=O)(=O)NCc3ccco3)cc2)c1`, the Potency is reported as inconclusive [inhibitor, single point]. In the case of `O=C(c1ccc(Cl)cc1)N1CCCCC1CCN1CCOCC1` (centres undefined), the Potency is reported as “inactive”. In the case of `Cc1ccc(Cl)cc1NC(=O)C[n+]1ccc(Cc2ccc([N+](=O)[O-])cc2)cc1`, the Potency is reported as “inactive”. In the case of `CSc1nnc(N2C(=O)C(O)=C(C(=O)c3ccco3)C2c2ccccc2F)s1` (centres undefined), the Potency is reported as “inactive”. For `O=C(COc1cccc2c1CCNC2=O)Nc1cccc(F)c1`, the Potency was inconclusive [inhibitor, single point]. With `CC(C(=O)O)N1C(=O)c2cccc3cccc1c23` (centres undefined) the Potency was inconclusive [inhibitor, partial curve]. In the case of `O=C(NCCN1CCN(c2ccccc2F)CC1)C1COc2ccccc2C1` (centres undefined), the Potency is reported as inconclusive [inhibitor, single point]. `COC(=O)c1ccc2nc(NC(=O)CN3C(=O)CCC3=O)sc2c1` was tested, and the Potency was inconclusive [inhibitor, full curve]. With `CCc1nnc(NC(=O)CSc2nnc(COc3ccc(C#N)cc3)n2-c2ccccc2)s1` the Potency was inconclusive [inhibitor, full curve, poor fit]. `C=CCOc1ccc(CN(C)CC(=O)Nc2ccccc2[N+](=O)[O-])cc1` was tested, and the Potency was inconclusive [inhibitor, partial curve, poor fit]. In the case of `O=C(Nc1ccc(O)cc1)c1ccc(NC(=O)c2cccs2)cc1`, the Potency is reported as “inactive”.
